“And” between values parts separate entries of the source, which are not always exact repeats. Identical values can stand only once. This list was built around the results that the source calls inconclusive (neither active nor inactive); the mix of calls is not that of the screen. For part of these data: A potency beside an inconclusive call is a rough fit, not a confirmed value. More than one record can exist for a structure, and the calls need not agree. The source made the active and inactive calls. The call rests on the fitted dose curve; in most records, active means well fitted curve in the direction sought with a large enough effect; inconclusive means small, poorly fitted or top-dose-only effect, or another doubt; inactive means no such curve, though single readings can be large; an effect the other way counts as inactive or inconclusive.
Assays:
[1] = Primary redox qHTS assay for identification of artifact compounds. (AID 1845223); conditions: Amplex Red/HRP redox cycling with DTT, fluorescence; redox activity (% of DA3003): at 53.8 µM (top of the series); further: potency means the concentration at half of the fitted maximal effect
Method in brief: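 Amplex Red (25 uM) and HRP (250 mU/mL) in HBSS, with compounds for 15 min, then 250 uM DTT for 30 min, room temperature, dark. Fluorescence 525/598 nm read; normalized to DMSO and 10 uM DA3003; Hill fit.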

[2] = qHTS of pediatric cancer cell lines to identify multiple opportunities for drug repurposing: Primary screen for SK-N-MC cells (AID 1347093); conditions: SK-N-MC viability, CellTiter-Glo luminescence, 48 h; activity change, negative = cytotoxic: at 46 µM (top of the series); further: potency means the concentration at half of the fitted maximal effect
Method in brief: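 Metabolically active cells were quantified by ATP-dependent luminescence (CellTiter-Glo, 15 min at room temperature) following 48 h treatment. Cells had been plated at 500-1,000 per well and settled for 5 h beforehand.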

[3] = qHTS of pediatric cancer cell lines to identify multiple opportunities for drug repurposing: Primary screen for U-2 OS cells (AID 1347096); further: potency means the concentration at half of the fitted maximal effect; nearly all actives have a fitted effect of over 50% in size
Method in brief: (§1)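 Cells (500-1,000/well) in growth media were settled 5 h at 37 degrees C, then given compounds for 48 h. Viability was read as CellTiter-Glo luminescence. Primary runs used MIPE at 11 points (0.78 nM-46 µM) and NPC at 8 points (0.59 nM-46 µM); follow-ups used 11 points.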

[4] = qHTS of pediatric cancer cell lines to identify multiple opportunities for drug repurposing: Primary screen for Rh18 cells (AID 1347102); further: potency means the concentration at half of the fitted maximal effect; nearly all actives have a fitted effect of over 65% in size
Method in brief: as §1

[5] = qHTS of pediatric cancer cell lines to identify multiple opportunities for drug repurposing: Primary screen for MG 63 (6-TG R) cells (AID 1347105); conditions: MG 63 (6-TG R) viability, CellTiter-Glo, 48 h; activity change, negative = cytotoxic: at 46 µM (top of the series); further: potency means the concentration at half of the fitted maximal effect; nearly all actives have a fitted effect of over 50% in size
Method in brief: (§2)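 500-1,000 cells/well; 5 h pre-incubation 37 °C/5% CO2; compound pinned; 48 h; CellTiter-Glo, 15 min RT; luminescence. MIPE 11-pt from 0.78 nM, NPC 8-pt from 0.59 nM final. Bortezomib 2.3 µM final as positive control.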

[6] = Quantitative High-Throughput drug screen in 47 multiple myeloma cell lines against the NCATS MIPE library collection: KHM11_PLB cell viability assay (AID 1918962); conditions: KHM11 myeloma cell viability, CellTiter-Glo ATP luminescence, 48 h; viability, % of DMSO control: at 45.8 µM (top of the series); further: nearly all actives have a fitted effect of over 35% in size; further: potency means the concentration at half of the fitted maximal effect
Method in brief: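 Viability readout: CellTiter-Glo luminescence following 5 min room-temperature incubation with reagent. Prior exposure: 48 h, 37C, humidified 5% CO2, 500 cells per well.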

[7] = Quantitative High-Throughput drug screen in 47 multiple myeloma cell lines against the NCATS MIPE library collection: JIM1_ECACC cell viability assay (AID 1918964; further: potency means the concentration at half of the fitted maximal effect)
Method in brief: (§3)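 CellTiter-Glo luminescence (ATP) after 48 h compound exposure, 37C/5% CO2; 500 cells/well; MIPE 4.0 approved/investigational drugs pinned in; DMSO = 100%, media only = 0% viability.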

[8] = Quantitative High-Throughput drug screen in 47 multiple myeloma cell lines against the NCATS MIPE library collection: L363_DSMZ cell viability assay (AID 1918984); conditions: L363 myeloma viability, CellTiter-Glo ATP luminescence, 48 h; viability (% of control): at 45.8 µM (top of the series); further: nearly all actives have a fitted effect of over 40% in size; further: potency means the concentration at half of the fitted maximal effect
Method in brief: (§4)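 MIPE 4.0 approved/investigational drugs; 500 cells/well; 48 h 37 °C humidified 5% CO2; CTG luminescence readout; DMSO = 100%, media = 0% viability.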

[9] = Quantitative High-Throughput drug screen in 47 multiple myeloma cell lines against the NCATS MIPE library collection: UTMC2_PLB cell viability assay (AID 1919868); conditions: CellTiter-Glo ATP luminescence, 48 h; viability (% of DMSO control): at 45.8 µM (top of the series); further: nearly all actives have a fitted effect of over 55% in size; further: potency means the concentration at half of the fitted maximal effect
Method in brief: as §4

[10] = test system: MCC-13; test: qHTS assay to identify novel small-molecules to repurpose for Merkel cell carcinoma treatment (AID 1296009); conditions: MCC and control cell lines, CellTiter-Glo viability, 72 h; series mostly up to 46 µM; further: potency means the concentration at half of the fitted maximal effect; nearly all actives have a fitted effect of over 60% in size
Method in brief: (§5)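 qHTS format: cells treated with library compounds in DMSO across 8 (NPC) or 11 (MIPE) concentrations. Readout after 72 hr at 37 degree celsius was CellTiter-Glo luminescence.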

[11] = test system: MKL-1; test: as above; conditions: MCC and control cell lines, CellTiter-Glo viability, 72 h; activity change, negative = cytotoxicity: at 46 µM (top of the series)
Method in brief: as §5

[12] = molecular target: Phospholipid hydroperoxide glutathione peroxidase GPX4 (Homo sapiens) (UniProt P36969); test: Primary qHTS Assay for Inhibitors of Recombinant Selenoprotein Glutathione Peroxidase 4 (GPX4) (AID 1845192); further: nearly all actives have a fitted effect of over 65% in size; further: potency means the concentration at half of the fitted maximal effect; on activity change, negative = inhibition: on the % scale 0 is the no-effect control and ±100 the full control effect
Method in brief: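 GR-coupled readout: 100 nM GR, 1 mM GSH, 0.5 mM NADPH; NADPH fluorescence (ex 340/em 450 nm) read at t=0 and after 15 min RT. GPX4 200 nM, preincubated 30 min with compound; substrate 0.5 mM CHP.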

[13] = test system: Zika virus NS2B-NS3 protease (linked construct); test: Primary screen NINDS Rhodamine qHTS for Zika virus inhibitors (AID 1347160); conditions: activity change, negative = inhibition: at 57.1 µM (top of the series) unless noted; further: nearly all actives have a fitted effect of over 55% in size; further: potency means the concentration at half of the fitted maximal effect; on activity change, negative = inhibition: on the % scale 0 is the no-effect control and ±100 the full control effect
Method in brief: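 Kinetic fluorescence (Ex 480 nm, Em 540 nm) over 15 min with 1.5 microM Rhodamine110 peptide and 25 nM linked protease.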

[14] = test system: Zika virus NS2B-NS3 protease (unlinked complex); test: Primary screen GU Rhodamine qHTS for Zika virus inhibitors: Unlinked NS2B-NS3 protease assay (AID 1347159); further: nearly all actives have a fitted effect of over 60% in size; further: potency means the concentration at half of the fitted maximal effect; on activity change, negative = inhibition: on the % scale 0 is the no-effect control and ±100 the full control effect
Method in brief: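 A qHTS format was used, with compound concentrations ranging up to 114 microM. Each compound was preincubated with 25 nM NS2B-NS3 protease, and the substrate was then added at 1.5 microM. Curves were fitted with a 4-parameter Hill model.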

[15] = qHTS of pediatric cancer cell lines to identify multiple opportunities for drug repurposing: Primary screen for RD cells (AID 1347104); conditions: RD rhabdomyosarcoma viability, CellTiter-Glo luminescence, 48 h; activity change, negative = cytotoxic: at 46 µM (top of the series); further: potency means the concentration at half of the fitted maximal effect; nearly all actives have a fitted effect of over 55% in size
Method in brief: as §2

[16] = qHTS of pediatric cancer cell lines to identify multiple opportunities for drug repurposing: Primary screen for control Hh wild type fibroblast cells (AID 1347106); further: nearly all actives have a fitted effect of over 55% in size; further: potency means the concentration at half of the fitted maximal effect;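 on activity change, negative = cytotoxic: on the % scale 0 is the no-effect control and ±100 the full control effect; a drop in luminescence marks cytotoxicity and a rise apparent proliferation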
Method in brief: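 Viability after 48 h compound treatment at 37C, 500-1,000 cells/well, read as ATP luminescence with CellTiter-Glo. Primary screens used 11-point (MIPE, 0.78 nM-46 µM) or 8-point (NPC, 0.59 nM-46 µM) final concentrations; follow-up screens used 11-point dilutions.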

[17] = Quantitative High-Throughput drug screen in 47 multiple myeloma cell lines against the NCATS MIPE library collection: KMS21BM_JCRB cell viability assay (AID 1918974); conditions: ATP luminescence, 48 h; viability: at 45.8 µM (top of the series); further: potency means the concentration at half of the fitted maximal effect
Method in brief: as §3

[18] = qHTS of pediatric cancer cell lines to identify multiple opportunities for drug repurposing: Primary screen for A673 cells (AID 1347092); conditions: A673 Ewing sarcoma viability, CellTiter-Glo ATP luminescence, 48 h; activity change, negative = cytotoxic: at 46 µM (top of the series); further: potency means the concentration at half of the fitted maximal effect; nearly all actives have a fitted effect of over 45% in size
Method in brief: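 A673 cells (500-1,000 cells/well) were treated 48 hours at 37 degrees C with compounds at 11-point (0.78 nM to 46 µM) or 8-point (0.59 nM to 46 µM) dilutions. Viability read by CellTiter-Glo luminescence; concentration-response curves fitted.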

[19] = qHTS of pediatric cancer cell lines to identify multiple opportunities for drug repurposing: Primary screen for Saos-2 cells (AID 1347097); further: on the % scale 0 is the no-effect control and ±100 the full control effect; nearly all actives have a fitted effect of over 40% in size
Method in brief: as §2
Tags describe the fitted curve by direction and shape.

Sequence of UniProt P36969 (P36969 whole entry, looked up): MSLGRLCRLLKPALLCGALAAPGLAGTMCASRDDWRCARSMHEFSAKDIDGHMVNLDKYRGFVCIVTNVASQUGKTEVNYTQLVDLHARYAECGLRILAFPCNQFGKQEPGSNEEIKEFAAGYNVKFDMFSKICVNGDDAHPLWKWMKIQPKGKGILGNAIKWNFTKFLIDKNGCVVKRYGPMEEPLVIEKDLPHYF

Compound: Cc1ccc(NC(=O)C(C)C)cc1C1CCN(Cc2ccc(Oc3ccc(F)c(F)c3)cc2)CC1
- Potency [1]: inconclusive: 3.36 µM [activator, full curve, poor fit]

Compound: CC/C=C/C(O)C(O)C1=C(C)C(=O)C2(O1)C(=O)NC(OC)(C(=O)c1ccccc1)C2O (configuration not stated)
- Potency [1]: inactive

Compound: Cc1ccc([N+](=O)[O-])cc1S(=O)(=O)N(C)N=Cc1cnc2ccc(Br)cn12
- Potency [2]: inconclusive: 935 nM [cytotoxic, full curve, poor fit]
- Potency [3]: active: 118 nM
- Potency [4]: active: 148 nM
- Potency [5]: active: 18700 nM
- viability, % of DMSO control [6]: inconclusive: 3.4% [cytotoxic]
- Potency [7]: active: 1 nM
- viability (% of control) [8]: inconclusive: 4.79% [cytotoxic]
- viability (% of DMSO control) [9]: inconclusive: 6% [cytotoxic]
- Potency [10]: inconclusive: 209 nM [inhibitor, full curve]
- Potency [11]: inconclusive: 59 nM [inhibitor, full curve, poor fit]

Compound: Cc1c(-c2ccnn2C)cc(C(=O)NCc2ccc(S(C)(=O)=O)cn2)c(=O)n1-c1cccc(C(F)(F)F)c1
- Potency [12]: active: 12.8 µM and inconclusive: 32.1 µM [inhibitor, single point]
- Potency [1]: inconclusive: 4.74 µM [activator, full curve, poor fit] and inconclusive: 2.99 µM [activator, full curve] and inconclusive: 9.47 µM [activator, partial curve, poor fit]

Compound: CC(=O)c1c(OCCN2CCCCC2)c(OCCC(C)c2ccc(F)cc2)c2oc(C)nc2c1C (configuration not stated)
- Potency [13]: inactive

Compound: O=S(=O)(c1cccc2ccccc12)n1ccc2ccc(N3CCN4CCCC4C3)cc21 (configuration not stated)
- Potency [1]: inconclusive: 21.2 µM [activator, partial curve, poor fit]

Compound: Cc1nc(-c2cn3c(n2)-c2ccc(-c4cnn(C(C)(C)C(N)=O)c4)cc2OCC3)n(C(C)C)n1
- Potency [12]: active: 14.3 µM and active: 20.2 µM
- Potency [1]: inconclusive: 5.97 µM [activator, full curve, poor fit]

Compound: O=C(Nc1cccc([N+](=O)[O-])c1)c1cccc(S(=O)(=O)N2CCCCCC2)c1
- Potency [12]: inactive

Compound: C[C@H](Oc1cc(-c2cnn(C3CCNCC3)c2)cnc1N)c1c(Cl)ccc(F)c1Cl
- Potency [12]: inconclusive: 5.01 µM [inhibitor, full curve]

Compound: CN(C)CCCNc1nc(CN2CCN(C(c3ccc(Cl)cc3)c3ccc(Cl)cc3)CC2)nc2ccccc12
- Potency [1]: inactive

Compound: CC(OC1OCCN(Cc2n[nH]c(=O)[nH]2)C1c1ccc(F)cc1)c1cc(C(F)(F)F)cc(C(F)(F)F)c1 (configuration not stated)
- Potency [13]: inconclusive: 14100 nM [inhibitor, partial curve, poor fit]

Compound: COc1cc2nc(N3CCN(C(=O)c4ccco4)C4CCCCC43)nc(N)c2cc1OC (configuration not stated)
- Potency [14]: inactive
- Potency [12]: active: 22.7 µM

Compound: CNc1ccc([N+](=O)[O-])c(Nc2ccc3[nH]ncc3c2)n1
- Potency [14]: inconclusive: 50100 nM [inhibitor, partial curve, poor fit]

Compound: C(#Cc1nc2ncccc2nc1OCCN1CCCC1)c1ccccc1
- Potency [14]: inconclusive: 89100 nM [inhibitor, single point]
- Potency [1]: inconclusive: 37.7 µM [activator, partial curve, poor fit]

Compound: Cc1cccc(-c2[nH]c(Cc3cccc(C(N)=O)c3)nc2-c2ccc3nccnc3c2)n1
- Potency [1]: inactive

Compound: COc1ccc(-c2cc3onc(-c4ccncc4)c3c(=O)n2C)cc1
- Potency [13]: inactive

Compound: Cc1nc(NC(=O)N2CCC[C@H]2C(N)=O)sc1-c1ccnc(C(C)(C)C(F)(F)F)c1
- Potency [1]: inconclusive: 21.2 µM [activator, partial curve, poor fit]

Compound: COc1ccc2c3ccnc4ccc(=O)n(c2c1)c43
- Potency [14]: inactive

Compound: CO[C@H]1/C=C\O[C@@]2(C)Oc3c(C)c(O)c4c(O)c(c5c(nc6cc(C)ccn65)c4c3C2=O)NC(=O)/C(C)=C\C=C/[C@H](C)[C@H](O)[C@@H](C)[C@@H](O)[C@@H](C)[C@H](OC(C)=O)[C@@H]1C
- Potency [12]: inconclusive: 14.1 µM [inhibitor, partial curve]
- Potency [1]: inconclusive: 10.6 µM [activator, partial curve]

Compound: CCc1cnn2c(NCc3ccc[n+]([O-])c3)cc(N3CCCCC3CCO)nc12 (configuration not stated)
- Potency [1]: inconclusive: 29.9 µM [activator, single point]

Compound: Cc1cc2c(F)c(Oc3ncnn4cc(OCC(C)OC(=O)C(C)N)c(C)c34)ccc2[nH]1 (configuration not stated)
- Potency [14]: inactive
- Potency [1]: inconclusive: 3.36 µM [activator, full curve]

Compound: NS(=O)(=O)OC[C@@H]1C[C@@H](n2ccc3c(N[C@H]4CCc5ccccc54)ncnc32)C[C@@H]1O
- Potency [1]: inconclusive: 23.8 µM [activator, partial curve, poor fit] and inconclusive: 26.7 µM [activator, partial curve, poor fit]

Compound: O=S(=O)(Nc1cc(Cl)c(Oc2cnc3ccccc3c2)c(Cl)c1)c1ccc(Cl)cc1Cl
- Potency [14]: active: 1780 nM
- Potency [13]: active: 3980 nM

Compound: O=C(Nc1ncc(-c2cc(C(F)F)nn2-c2c(Cl)cccc2Cl)s1)C1CC1
- Potency [2]: active: 296 nM
- Potency [3]: active: 1870 nM
- Potency [4]: inconclusive: 372 nM [cytotoxic, full curve]
- Potency [15]: active: 418 nM
- Potency [5]: inconclusive: 235 nM [cytotoxic, full curve]
- Potency [16]: inconclusive: 3720 nM [cytotoxic, full curve]
- Potency [14]: inactive
- Potency [17]: inconclusive: 418 nM [cytotoxic, full curve, poor fit]
- Potency [8]: active: 235 nM
- Potency [9]: active: 526 nM
- Potency [11]: inconclusive: 833 nM [inhibitor, full curve]

Compound: COC(=O)[C@@H]1[C@H]2C[C@@H]3c4[nH]c5ccccc5c4CCN3C[C@@H]2CC[C@@H]1O
- Potency [18]: inconclusive: 14800 nM [cytotoxic, partial curve]
- Potency [19]: inactive
- Potency [16]: inactive
- Potency [6]: inconclusive: 29.6 nM [rising, full curve]
- Potency [7]: inconclusive: 11.8 nM [rising, full curve, poor fit]
- Potency [8]: inactive
- Potency [9]: inactive
